Our source for the binding signal values is PMC12820563, “FoxP3 forms a head-to-head dimer in vivo and stabilizes its multimerization on adjacent microsatellites”.

This is one part of the list.

This assay has as its target T1, MBP-FoxP1dN (Mus musculus, UniProt P58462 326-579).
T1 sequence: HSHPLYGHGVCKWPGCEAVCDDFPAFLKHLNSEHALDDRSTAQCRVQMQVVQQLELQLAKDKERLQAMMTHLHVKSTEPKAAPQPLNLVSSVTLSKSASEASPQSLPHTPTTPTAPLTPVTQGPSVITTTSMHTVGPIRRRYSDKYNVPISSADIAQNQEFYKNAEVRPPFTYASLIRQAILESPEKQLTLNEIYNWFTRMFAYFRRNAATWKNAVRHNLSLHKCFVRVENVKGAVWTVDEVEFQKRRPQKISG
Description: PD-seq (MBP pull-down with sequencing); 20 mM Tris-HCl pH 7.5, 100 mM NaCl, 1.5 mM MgCl2, 0.4 uM protein, 0.1 uM dsDNA library, 30 min, room temperature, amylose pull-down; high values mean tight binding. As to conditions: protein: recombinant; tags: His6-MBP; chain copies: 2; dsDNA, one strand shown. In outline:
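Binding is the reads-per-million enrichment of pull-down relative to input, pooled across replicates. For this, 0.4 µM His6-MBP-tagged mouse FoxP3 or FoxP1 fragment lacking the N-terminus, made in E. coli, was incubated with 0.1 µM Klenow-filled double-stranded degenerate DNA library for 30 min at room temperature in Tris pH 7.5 buffer with NaCl and MgCl2. Complexes bound to amylose resin were washed three times before proteinase K released the DNA for PCR barcoding and Illumina sequencing.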
For the sequence “GATGATTGTTCTCCCAGCTGATGAATTGAGCGGTTCGAGTAAACAAATTTTCCTAATCTTTCTGTTCAAGCGCCATCTAC”, the binding signal was 0.846 RPM ratio (pull-down/input).

For “GATGATTGTTCTCCCAGCTGATGAATTTTCAATATCGAGTAAACAAATTTTCCTAATCTTTCTGTTCAAGCGCCATCTAC”, the binding signal was 1.06 RPM ratio (pull-down/input).

As for “GATGATTGTTCTCCCAGCTGATGAATTTCGAGAGTCGAGTAAACAAATTTTCCTAATCTTTCTGTTCAAGCGCCATCTAC”, the binding signal is 0.774 RPM ratio (pull-down/input).

In the case of “GATGATTGTTCTCCCAGCTGATGAATTAAAGTCTTCGAGTAAACAAATTTTCCTAATCTTTCTGTTCAAGCGCCATCTAC”, the binding signal was 0.894 RPM ratio (pull-down/input).

As to “GATGATTGTTCTCCCAGCTGATGAATTCCAATGATCGAGTAAACAAATTTTCCTAATCTTTCTGTTCAAGCGCCATCTAC”, the binding signal is 0.843 RPM ratio (pull-down/input).

Take “GATGATTGTTCTCCCAGCTGATGAATTAGGTTCGTCGAGTAAACAAATTTTCCTAATCTTTCTGTTCAAGCGCCATCTAC”: the binding signal was 0.902 RPM ratio (pull-down/input).

For the sequence “GATGATTGTTCTCCCAGCTGATGAATTGCAGTGCTCGAGTAAACAAATTTTCCTAATCTTTCTGTTCAAGCGCCATCTAC”, the binding signal was 1.01 RPM ratio (pull-down/input).

As to “GATGATTGTTCTCCCAGCTGATGAATTTAAGGCCTCGAGTAAACAAATTTTCCTAATCTTTCTGTTCAAGCGCCATCTAC”, the binding signal is 0.839 RPM ratio (pull-down/input).

Turning to “GATGATTGTTCTCCCAGCTGATGAATTGCCACATTCGAGTAAACAAATTTTCCTAATCTTTCTGTTCAAGCGCCATCTAC”, the binding signal is 1.2 RPM ratio (pull-down/input).

For the sequence “GATGATTGTTCTCCCAGCTGATGAATTGCATCAATCGAGTAAACAAATTTTCCTAATCTTTCTGTTCAAGCGCCATCTAC”, the binding signal is 1.53 RPM ratio (pull-down/input).

“GATGATTGTTCTCCCAGCTGATGAATTGTAGCCATCGAGTAAACAAATTTTCCTAATCTTTCTGTTCAAGCGCCATCTAC”: the binding signal was 1.08 RPM ratio (pull-down/input).

As for “GATGATTGTTCTCCCAGCTGATGAATTCCCGCTATCGAGTAAACAAATTTTCCTAATCTTTCTGTTCAAGCGCCATCTAC”, the binding signal was 0.815 RPM ratio (pull-down/input).

As to “GATGATTGTTCTCCCAGCTGATGAATTCCAAGTGTCGAGTAAACAAATTTTCCTAATCTTTCTGTTCAAGCGCCATCTAC”, the binding signal is 0.858 RPM ratio (pull-down/input).

For the sequence “GATGATTGTTCTCCCAGCTGATGAATTCCAATGTTCGAGTAAACAAATTTTCCTAATCTTTCTGTTCAAGCGCCATCTAC”, the binding signal was 0.877 RPM ratio (pull-down/input).

Consider “GATGATTGTTCTCCCAGCTGATGAATTGCCCAGGTCGAGTAAACAAATTTTCCTAATCTTTCTGTTCAAGCGCCATCTAC”, for which the binding signal was 0.871 RPM ratio (pull-down/input).

Take “GATGATTGTTCTCCCAGCTGATGAATTATTGGGTTCGAGTAAACAAATTTTCCTAATCTTTCTGTTCAAGCGCCATCTAC”: the binding signal is 1.06 RPM ratio (pull-down/input).

For “GATGATTGTTCTCCCAGCTGATGAATTTGGACAATCGAGTAAACAAATTTTCCTAATCTTTCTGTTCAAGCGCCATCTAC”, the binding signal is 1.17 RPM ratio (pull-down/input).

As for “GATGATTGTTCTCCCAGCTGATGAATTGTGACTATCGAGTAAACAAATTTTCCTAATCTTTCTGTTCAAGCGCCATCTAC”, the binding signal is 1.18 RPM ratio (pull-down/input).

On to “GATGATTGTTCTCCCAGCTGATGAATTTTGATACTCGAGTAAACAAATTTTCCTAATCTTTCTGTTCAAGCGCCATCTAC”, for which the binding signal was 1.06 RPM ratio (pull-down/input).

In the case of “GATGATTGTTCTCCCAGCTGATGAATTTCCTTAGTCGAGTAAACAAATTTTCCTAATCTTTCTGTTCAAGCGCCATCTAC”, the binding signal was 0.788 RPM ratio (pull-down/input).

For “GATGATTGTTCTCCCAGCTGATGAATTTATCCAGTCGAGTAAACAAATTTTCCTAATCTTTCTGTTCAAGCGCCATCTAC”, the binding signal was 0.962 RPM ratio (pull-down/input).

With “GATGATTGTTCTCCCAGCTGATGAATTACTTCAATCGAGTAAACAAATTTTCCTAATCTTTCTGTTCAAGCGCCATCTAC”, the binding signal was 1.16 RPM ratio (pull-down/input).

In the case of “GATGATTGTTCTCCCAGCTGATGAATTGTAGTCCTCGAGTAAACAAATTTTCCTAATCTTTCTGTTCAAGCGCCATCTAC”, the binding signal is 1.02 RPM ratio (pull-down/input).

Take “GATGATTGTTCTCCCAGCTGATGAATTTCCGGCGTCGAGTAAACAAATTTTCCTAATCTTTCTGTTCAAGCGCCATCTAC”: the binding signal is 0.8 RPM ratio (pull-down/input).

Take “GATGATTGTTCTCCCAGCTGATGAATTGGAGAATTCGAGTAAACAAATTTTCCTAATCTTTCTGTTCAAGCGCCATCTAC”: the binding signal was 0.907 RPM ratio (pull-down/input).

Consider “GATGATTGTTCTCCCAGCTGATGAATTAGCACTATCGAGTAAACAAATTTTCCTAATCTTTCTGTTCAAGCGCCATCTAC”, for which the binding signal was 0.988 RPM ratio (pull-down/input).

Turning to “GATGATTGTTCTCCCAGCTGATGAATTGAGCAACTCGAGTAAACAAATTTTCCTAATCTTTCTGTTCAAGCGCCATCTAC”, the binding signal is 0.874 RPM ratio (pull-down/input).

Consider “GATGATTGTTCTCCCAGCTGATGAATTAGGAACGTCGAGTAAACAAATTTTCCTAATCTTTCTGTTCAAGCGCCATCTAC”, for which the binding signal is 0.882 RPM ratio (pull-down/input).

With “GATGATTGTTCTCCCAGCTGATGAATTAATTAGCTCGAGTAAACAAATTTTCCTAATCTTTCTGTTCAAGCGCCATCTAC”, the binding signal was 0.904 RPM ratio (pull-down/input).

On to “GATGATTGTTCTCCCAGCTGATGAATTAATCGTATCGAGTAAACAAATTTTCCTAATCTTTCTGTTCAAGCGCCATCTAC”, for which the binding signal was 1.04 RPM ratio (pull-down/input).

Take “GATGATTGTTCTCCCAGCTGATGAATTTCATAAATCGAGTAAACAAATTTTCCTAATCTTTCTGTTCAAGCGCCATCTAC”: the binding signal is 1.05 RPM ratio (pull-down/input).
